# Laboratory results reported in the supplement of paper PMC8728848.
# The other results are listed elsewhere or left out.
# Key:
# Assay in all cases: glycan array binding signal (z-score within array); higher = stronger binding
# Details in all cases: glycan notation: IUPAC condensed, linker removed
# [1] = biological target: Gal(b1-3)GlcNAc(b1-6)[Gal(b1-3)]GalNAc
# How it was run: (§1)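 From the Consortium for Functional Glycomics database, 3228 arrays were curated, keeping only those whose protein sequence was available. Binding is given as a within-array Z-score averaged across arrays sharing a protein sequence and across linkers. Negative Z-scores can be read as non-binding.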
# [2] = biological target: Gal(b1-3)GlcNAc6S
# How it was run: as §1
# [3] = biological target: Gal(b1-3)[Fuc(a1-4)]GlcNAc
# How it was run: as §1
# [4] = biological target: Gal(b1-3)[Fuc(a1-4)]GlcNAc(b1-2)Man
# How it was run: as §1
# [5] = biological target: Gal(b1-3)[Fuc(a1-4)]GlcNAc(b1-2)Man(a1-3)[Gal(b1-3)[Fuc(a1-4)]GlcNAc(b1-2)Man(a1-6)]Man(b1-4)GlcNAc(b1-4)[Fuc(a1-6)]GlcNAc
# How it was run: as §1
# [6] = biological target: Gal(b1-3)[Fuc(a1-4)]GlcNAc(b1-3)Gal(b1-3)[Fuc(a1-4)]GlcNAc
# How it was run: as §1
# [7] = biological target: Gal(b1-3)[Fuc(a1-4)]GlcNAc(b1-3)Gal(b1-4)[Fuc(a1-3)]GlcNAc
# How it was run: as §1
# [8] = biological target: Gal(b1-3)[Fuc(a1-4)]GlcNAc(b1-6)GalNAc
# How it was run: as §1
# [9] = biological target: Gal(b1-3)[GlcNAc(b1-6)]GalNAc
# How it was run: as §1
# [10] = biological target: Gal(b1-3)[Neu5Ac(a2-6)]GalNAc
# How it was run: as §1
# [11] = biological target: Gal(b1-3)[Neu5Ac(a2-6)]GlcNAc(b1-4)Gal(b1-4)Glc
# How it was run: as §1
# [12] = biological target: Gal(b1-3)[Neu5Ac(b2-6)]GalNAc
# How it was run: as §1
# [13] = biological target: Gal(b1-4)Gal
# How it was run: as §1
# [14] = biological target: Gal(b1-4)GalNAc(a1-3)[Fuc(a1-2)]Gal(b1-4)GlcNAc
# How it was run: as §1
# [15] = biological target: Gal(b1-4)GalNAc(b1-3)[Fuc(a1-2)]Gal(b1-4)GlcNAc
# How it was run: as §1
# [16] = biological target: Gal(b1-4)Glc
# How it was run: as §1
# [17] = biological target: Gal(b1-4)Glc6S
# How it was run: as §1
# [18] = biological target: Gal(b1-4)GlcNAc
# How it was run: as §1
# [19] = biological target: Gal(b1-4)GlcNAc(a1-6)Gal(b1-4)GlcNAc
# How it was run: as §1
# [20] = biological target: Gal(b1-4)GlcNAc(b1-2)Man
# How it was run: as §1
# [21] = biological target: Gal(b1-4)GlcNAc(b1-2)Man(a1-3)Man(b1-4)GlcNAc(b1-4)GlcNAc
# How it was run: as §1
# [22] = biological target: Gal(b1-4)GlcNAc(b1-2)Man(a1-3)[Gal(b1-4)GlcNAc(b1-2)Man(a1-6)]Man(b1-4)GlcNAc(b1-4)GlcNAc
# How it was run: as §1
# [23] = biological target: Gal(b1-4)GlcNAc(b1-2)Man(a1-3)[Gal(b1-4)GlcNAc(b1-2)Man(a1-6)]Man(b1-4)GlcNAc(b1-4)[Fuc(a1-6)]GlcNAc
# How it was run: as §1
# [24] = biological target: Gal(b1-4)GlcNAc(b1-2)Man(a1-3)[Gal(b1-4)GlcNAc(b1-2)Man(a1-6)][Gal(b1-4)GlcNAc(b1-4)]Man(b1-4)GlcNAc(b1-4)[Fuc(a1-6)]GlcNAc
# How it was run: as §1
# [25] = biological target: Gal(b1-4)GlcNAc(b1-2)Man(a1-3)[Gal(b1-4)GlcNAc(b1-2)Man(a1-6)][GlcNAc(b1-4)]Man(b1-4)GlcNAc(b1-4)[Fuc(a1-6)]GlcNAc
# How it was run: as §1
# [26] = biological target: Gal(b1-4)GlcNAc(b1-2)Man(a1-3)[GlcNAc(b1-2)Man(a1-6)]Man(b1-4)GlcNAc(b1-4)GlcNAc
# How it was run: as §1
# [27] = biological target: Gal(b1-4)GlcNAc(b1-2)Man(a1-3)[GlcNAc(b1-4)][Gal(b1-4)GlcNAc(b1-2)Man(a1-6)]Man(b1-4)GlcNAc(b1-4)GlcNAc
# How it was run: as §1
# [28] = biological target: Gal(b1-4)GlcNAc(b1-2)Man(a1-3)[Man(a1-6)]Man(b1-4)GlcNAc(b1-4)GlcNAc
# How it was run: as §1
# [29] = biological target: Gal(b1-4)GlcNAc(b1-2)Man(a1-6)Man(b1-4)GlcNAc(b1-4)GlcNAc
# How it was run: as §1
# [30] = biological target: Gal(b1-4)GlcNAc(b1-2)Man(a1-6)[GlcNAc(b1-2)Man(a1-3)]Man(b1-4)GlcNAc(b1-4)GlcNAc
# How it was run: as §1
# [31] = biological target: Gal(b1-4)GlcNAc(b1-2)Man(a1-6)[Man(a1-3)]Man(b1-4)GlcNAc(b1-4)GlcNAc
# How it was run: as §1
# [32] = biological target: Gal(b1-4)GlcNAc(b1-2)[Gal(b1-4)GlcNAc(b1-4)]Man(a1-3)[Gal(b1-4)GlcNAc(b1-2)Man(a1-6)]Man(b1-4)GlcNAc(b1-4)GlcNAc
# How it was run: as §1
# [33] = biological target: Gal(b1-4)GlcNAc(b1-2)[Gal(b1-4)GlcNAc(b1-4)]Man(a1-3)[Gal(b1-4)GlcNAc(b1-2)[Gal(b1-4)GlcNAc(b1-6)]Man(a1-6)]Man(b1-4)GlcNAc(b1-4)GlcNAc
# How it was run: as §1
# [34] = biological target: Gal(b1-4)GlcNAc(b1-2)[Gal(b1-4)GlcNAc(b1-4)]Man(a1-3)[GlcNAc(b1-4)][Gal(b1-4)GlcNAc(b1-2)Man(a1-6)]Man(b1-4)GlcNAc(b1-4)GlcNAc
# How it was run: as §1
# [35] = biological target: Gal(b1-4)GlcNAc(b1-2)[Gal(b1-4)GlcNAc(b1-4)]Man(a1-3)[GlcNAc(b1-4)][Gal(b1-4)GlcNAc(b1-2)[Gal(b1-4)GlcNAc(b1-6)]Man(a1-6)]Man(b1-4)GlcNAc(b1-4)GlcNAc
# How it was run: as §1
# [36] = biological target: Gal(b1-4)GlcNAc(b1-2)[Gal(b1-4)GlcNAc(b1-6)]Man(a1-6)[Gal(b1-4)GlcNAc(b1-2)Man(a1-3)]Man(b1-4)GlcNAc(b1-4)GlcNAc
# How it was run: as §1
# [37] = biological target: Gal(b1-4)GlcNAc(b1-2)[Gal(b1-4)GlcNAc(b1-6)]Man(a1-6)[Gal(b1-4)GlcNAc(b1-2)Man(a1-3)]Man(b1-4)GlcNAc(b1-4)[Fuc(a1-6)]GlcNAc
# How it was run: as §1
binder,measurement,setting,value
SP8524D-bot-399-27-399 (Bacteroides ovatus) (protein) DAKYDTLDTHAYIEEALSSTSQKVTVQATGESFTTLNVHLSNLSSTDNHYKLVTDQSVLDTYNHINGTGYIMLPKDYYTLPETITVKAGQYAADALSIALKAFSQEMMKSGESYALPVKLVLQDGSISPMENTGTFVILAESIIEFSAPMFVGAPSLKANKFTESPETYSQYTIEVRFQVANTADRDRAVFKNGGDDANFILLRFEDPQSDNENYKAHSLVQIVGRNRLYLNPSNSFKPNEWQHLALVCDGSNYRLYINGVDSGVLSIPTGATTFSDVNWFCLGDDSYSRWGNCKILMSEARIWSVVRSASQIQNNMTQVSPKSVGLEAYWRFNEGQGNVFEDATGKGHTLTTSATPTWIDGILSTDKSTEWK,glycan array binding signal (z-score),[1],0.059
same,glycan array binding signal (z-score),[2],-0.686
same,glycan array binding signal (z-score),[3],-0.42
same,glycan array binding signal (z-score),[4],0.35
same,glycan array binding signal (z-score),[5],0.1
same,glycan array binding signal (z-score),[6],-0.253
same,glycan array binding signal (z-score),[7],0.225
same,glycan array binding signal (z-score),[8],-0.345
same,glycan array binding signal (z-score),[9],-0.01
same,glycan array binding signal (z-score),[10],-0.459
same,glycan array binding signal (z-score),[11],-0.004
same,glycan array binding signal (z-score),[12],-0.359
same,glycan array binding signal (z-score),[13],-0.032
same,glycan array binding signal (z-score),[14],0.229
same,glycan array binding signal (z-score),[15],-0.476
same,glycan array binding signal (z-score),[16],0.046
same,glycan array binding signal (z-score),[17],-0.162
same,glycan array binding signal (z-score),[18],-0.145
same,glycan array binding signal (z-score),[19],0.173
same,glycan array binding signal (z-score),[20],-0.294
same,glycan array binding signal (z-score),[21],-0.534
same,glycan array binding signal (z-score),[22],-0.009
same,glycan array binding signal (z-score),[23],-0.109
same,glycan array binding signal (z-score),[24],0.098
same,glycan array binding signal (z-score),[25],-0.42
same,glycan array binding signal (z-score),[26],-0.156
same,glycan array binding signal (z-score),[27],-0.382
same,glycan array binding signal (z-score),[28],-0.118
same,glycan array binding signal (z-score),[29],-0.179
same,glycan array binding signal (z-score),[30],-0.367
same,glycan array binding signal (z-score),[31],-0.388
same,glycan array binding signal (z-score),[32],0.157
same,glycan array binding signal (z-score),[33],-0.283
same,glycan array binding signal (z-score),[34],-0.448
same,glycan array binding signal (z-score),[35],-0.568
same,glycan array binding signal (z-score),[36],-0.35
same,glycan array binding signal (z-score),[37],0.198
